From the supplement of paper PMC8748497 come the findings set out here.

Molecules are shown by their SMILES. The list shows a part of the results.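 How the source made its calls: active = fold change of at least 2 over DMSO control; inactive = below 2-fold.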 Repeats are few or missing, and single values can be far off.

In this assay the test system is HEK293 ARE/NRF2-luciferase reporter. Nature of the assay: ARE/NRF2 luciferase reporter activity, fold change over DMSO control; higher = stronger NRF2/ARE reporter activation. The following applies: 10 µM; 24 h.
As to `CC[C@@H](C(=O)O)[C@@H]1O[C@@H]([C@@H](C)[C@H](O)[C@H](C)C(=O)[C@H](CC)[C@H]2O[C@]3(C=C[C@@H](O)[C@]4(CC[C@@](C)([C@H]5CC[C@](O)(CC)[C@H](C)O5)O4)O3)[C@H](C)C[C@@H]2C)[C@@H](C)C[C@@H]1C`, the “ARE/NRF2 luciferase reporter activity” value was inactive: 1.04.

As for `CCn1cc(C(=O)O)c(=O)c2cc3c(cc21)OCO3`, the “ARE/NRF2 luciferase reporter activity” value is inactive: 1.04.

On to `C=C(C)[C@H]1Cc2c(ccc3c2O[C@@H]2COc4cc(OC)c(OC)cc4[C@@H]2C3=O)O1`, for which the “ARE/NRF2 luciferase reporter activity” value is inactive: 0.483.

Turning to `N#CCCN`, the “ARE/NRF2 luciferase reporter activity” value is inactive: 0.911.

For the compound `O=[N+]([O-])C(Br)(CO)CO`, the “ARE/NRF2 luciferase reporter activity” value was inactive: 1.21.

As for `CO[C@]12C[C@@H](COC(=O)c3cncc(Br)c3)CN(C)[C@@H]1Cc1cn(C)c3cccc2c13`, the “ARE/NRF2 luciferase reporter activity” value is inactive: 1.07.

On to `NC(=O)CN1CCCC1=O`, for which the “ARE/NRF2 luciferase reporter activity” value was inactive: 1.02.

Take `C=C[C@H]1CN2CC[C@H]1C[C@@H]2[C@@H](O)c1ccnc2ccccc12`: the “ARE/NRF2 luciferase reporter activity” value is inactive: 1.6.

As to `CCC1(CC)C(=O)C=CNC1=O`, the “ARE/NRF2 luciferase reporter activity” value was inactive: 0.634.

With `CC[C@H]1CN2CCc3cc(OC)c(OC)cc3[C@@H]2C[C@@H]1C[C@H]1NCCc2cc(OC)c(OC)cc21`, the “ARE/NRF2 luciferase reporter activity” value is inactive: 0.0106.

Turning to `CN[C@@H]1[C@@H](O)[C@@H](O[C@@H]2[C@@H](O)[C@H](O[C@H]3O[C@H]([C@@H](C)O)[C@@H](O)[C@H](O)[C@H]3N)[C@@H](N)C[C@H]2N)OC[C@]1(C)O`, the “ARE/NRF2 luciferase reporter activity” value is inactive: 0.949.

In the case of `C[C@]12CC[C@@H](O)C[C@@H]1CC[C@@H]1[C@@H]2CC[C@]2(C)C(=O)CC[C@@H]12`, the “ARE/NRF2 luciferase reporter activity” value was inactive: 0.915.

On to `CNC(C)(C)Cc1ccccc1`, for which the “ARE/NRF2 luciferase reporter activity” value was inactive: 0.881.

With `CC(C)C[C@H](CN)CC(=O)O`, the “ARE/NRF2 luciferase reporter activity” value is inactive: 0.873.

For the compound `c1cncc([C@@H]2CCCCN2)c1`, the “ARE/NRF2 luciferase reporter activity” value was inactive: 0.964.

Consider `CC(O)CN1CCN(CC(=O)[O-])CCN(CC(=O)[O-])CCN(CC(=O)[O-])CC1.[Gd+3]` (stereo not drawn), for which the “ARE/NRF2 luciferase reporter activity” value is active: 2.04.

Consider `CNC1CC(N)C(O)C(OC2OC(CO)C(O)C3OC4(OC(C(N)CO)C(O)C(O)C4O)OC23)C1O` (stereo not drawn), for which the “ARE/NRF2 luciferase reporter activity” value is inactive: 1.04.

With `O=C(O)CF`, the “ARE/NRF2 luciferase reporter activity” value is inactive: 0.751.

As for `CN(C)[C@@H]1C(=O)C(C(N)=O)=C(O)[C@@]2(O)C(=O)C3=C(O)c4c(O)ccc(Cl)c4[C@@](C)(O)[C@H]3C[C@@H]12`, the “ARE/NRF2 luciferase reporter activity” value was inactive: 0.894.

For the compound `O=C(O[C@H]1C[C@H]2CC[C@@H](C1)[N+]21CCCC1)C(O)(c1ccccc1)c1ccccc1`, the “ARE/NRF2 luciferase reporter activity” value is inactive: 1.

On to `COC[C@]12CN(C=O)[C@@H]3[C@@H]4[C@H](OC)[C@H]1[C@@]3([C@@H](OC)C[C@H]2O)[C@@H]1C[C@@]2(O)[C@H](OC(=O)c3ccccc3)[C@@H]1[C@]4(OC(C)=O)[C@@H](O)[C@@H]2OC`, for which the “ARE/NRF2 luciferase reporter activity” value is inactive: 0.969.

Regarding `COc1cccc(C=O)c1OC`, the “ARE/NRF2 luciferase reporter activity” value was inactive: 1.24.

Consider `Cc1ncc(CNC(=O)N(CCCl)N=O)c(N)n1`, for which the “ARE/NRF2 luciferase reporter activity” value is inactive: 0.883.

`CC1=CC(=O)c2c(O)cccc2C1=O`: the “ARE/NRF2 luciferase reporter activity” value is inactive: 0.0307.

`C=CCSSCC=C`: the “ARE/NRF2 luciferase reporter activity” value is inactive: 0.857.

Regarding `CC(=O)[O][Hg][c]1ccccc1`, the “ARE/NRF2 luciferase reporter activity” value is inactive: 0.000802.

For `NC(=O)C[S@@+]([O-])C(c1ccccc1)c1ccccc1`, the “ARE/NRF2 luciferase reporter activity” value was inactive: 1.05.

In the case of `CNC(C)[C@H](O)c1ccccc1` (stereo partly drawn), the “ARE/NRF2 luciferase reporter activity” value is inactive: 0.884.

`COc1cc2c(c(OC)c1OC)-c1ccc(O)c(=O)cc1[C@@H](N)CC2`: the “ARE/NRF2 luciferase reporter activity” value is inactive: 0.714.

As to `COc1cc(C=O)cc(OC)c1OC`, the “ARE/NRF2 luciferase reporter activity” value was inactive: 0.837.

For `C[CH2][Hg][S]c1ccccc1C(=O)[O-].[Na+]`, the “ARE/NRF2 luciferase reporter activity” value was active: 20.6.

In the case of `Nc1ncn[nH]1`, the “ARE/NRF2 luciferase reporter activity” value was inactive: 1.02.

For the compound `C[N+]1([O-])[C@@H]2CC[C@H]1C[C@@H](OC(=O)C(CO)c1ccccc1)C2` (stereo partly drawn), the “ARE/NRF2 luciferase reporter activity” value is inactive: 1.06.

`C=CCc1ccc2c(c1)OCO2`: the “ARE/NRF2 luciferase reporter activity” value is inactive: 1.06.

Turning to `CC(=O)CC1CCCCN1` (stereo not drawn), the “ARE/NRF2 luciferase reporter activity” value was inactive: 0.0808.

On to `COc1cc2c(cc1OC)[C@H](C)NCC2`, for which the “ARE/NRF2 luciferase reporter activity” value was inactive: 0.962.

As for `N#CN=C(N)N`, the “ARE/NRF2 luciferase reporter activity” value is inactive: 0.954.

Turning to `CC1(C)C2CC(=O)[C@]3(C)C(CC[C@@]4(C)[C@H](c5ccoc5)OC(=O)[C@H]5O[C@]543)[C@@]2(C)C(=O)C[C@H]1O` (stereo partly drawn), the “ARE/NRF2 luciferase reporter activity” value is inactive: 0.9.
